Values marked as one replicate rest on one cluster of the flow cell; about a third of the high ones do not repeat.
Tested on: ATP
Assay: switch fluorescence ratio, 500 uM ATP over buffer (Cy3 cluster intensity, sum of 5 cycles each) (fold (ratio)); higher = stronger signal-on switching upon ATP binding; sequences stand for … in TCGTCGGCAGCGTCAGATGTGTATAAGAGACAGTTTTTTTTTTTTTTTTTTTTTTTTT…TC
Details: aptamer strand: ATP DNA aptamer (quencher-CACCTGGGGGAGTATTGCGGAGGAAGG + anchor), 100 nM annealed; ATP concentration: 500 uM; one replicate
Outline: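 For every switch-domain sequence, the fluorescence ratio is the mean of per-cluster values, each being summed target-cycle Cy3 intensity over summed buffer-cycle Cy3 intensity. Clusters outside 100-1000 RFU were excluded. On a modified Illumina MiSeq flow-cell, the Cy3-labelled switching-strand clusters were annealed to 100 nM quencher-labelled ATP aptamer, imaged in selection buffer and then after 15 min with 500 uM ATP at 22 °C. Five such cycles were run, with NaOH stripping and re-annealing between them.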
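Note: ATP exposure 15 min at 22 °C before imaging.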

Row | Sequence | switch fluorescence ratio
1 | TCGGTGGTT | 1.01
2 | TCGGTGTCGT | 1.04
3 | TCGGTGTTGT | 1.02
4 | TCGGTTTCGC | 1
5 | TCGTAAACGA | 1
6 | TCGTAATCT | 1.08
7 | TCGTACTTTG | 0.981
8 | TCGTAGAAAT | 1.73
9 | TCGTAGAGTT | 0.989
10 | TCGTAGCCCT | 1.04
11 | TCGTATGATT | 0.966
12 | TCGTCAATTA | 1.05
13 | TCGTCCATT | 0.965
14 | TCGTCCTTCG | 1.28
15 | TCGTCGCCCG | 1.02
16 | TCGTCGCTTG | 0.992
17 | TCGTCGGCCT | 0.978
18 | TCGTCGTCTC | 0.991
19 | TCGTCGTTGC | 0.956
20 | TCGTCTATGG | 1.05
21 | TCGTGCGATT | 1.16
22 | TCGTGCTTCG | 1.04
23 | TCGTGGATTT | 0.97
24 | TCGTGGCTGA | 1.03
25 | TCGTGGGCGT | 0.98
26 | TCGTGTAAAA | 0.954

Row | Sequence | switch fluorescence ratio
27 | TCGTGTACAA | 1.06
28 | TCGTGTCGTA | 0.972
29 | TCGTGTCGTG | 1.04
30 | TCGTGTGTAT | 1
31 | TCGTTAATA | 1
32 | TCGTTAGCGA | 1.02
33 | TCGTTAGGCG | 0.948
34 | TCGTTATAAC | 0.981
35 | TCGTTCCAAC | 1.03
36 | TCGTTCTTGT | 0.999
37 | TCGTTGAGCC | 0.993
38 | TCGTTGCACG | 1.01
39 | TCGTTGCCTC | 1.03
40 | TCGTTGTGGA | 1.07
41 | TCGTTTGAAC | 0.99
42 | TCGTTTTCTC | 0.975
43 | TCGTTTTGAA | 1.06
44 | TCTAAAATC | 1.06
45 | TCTAAACAGT | 1.01
46 | TCTAACATTA | 1
47 | TCTAACGATA | 1.03
48 | TCTAAGACTC | 1.03
49 | TCTAAGTATA | 0.972
50 | TCTAAGTTCC | 0.993
51 | TCTAATAGCA | 1.01
52 | TCTAATGAAG | 1.01

Row | Sequence | switch fluorescence ratio
53 | TCTAATGGCA | 1.01
54 | TCTAATGTGT | 1.03
55 | TCTACAATTC | 1.18
56 | TCTACAGGG | 0.97
57 | TCTACCAA | 1.35
58 | TCTACCAACG | 1.34
59 | TCTACTAGTG | 0.974
60 | TCTAGAGAAT | 0.981
61 | TCTAGAGGAG | 1.01
62 | TCTAGATCTA | 0.966
63 | TCTAGCTACT | 1.13
64 | TCTAGCTCA | 1.01
65 | TCTAGCTGAA | 1.01
66 | TCTAGCTTGA | 1.02
67 | TCTAGTTCCG | 0.988
68 | TCTATACGCG | 1.08
69 | TCTATATTAA | 0.962
70 | TCTATATTTC | 0.965
71 | TCTATCCGTT | 0.99
72 | TCTATTAACA | 1
73 | TCTATTAGGT | 1.01
74 | TCTATTTCT | 1.03
75 | TCTCAACAT | 1.01
76 | TCTCAAGCGG | 1.16
77 | TCTCACTAG | 1.01
78 | TCTCAGATGA | 1.01

Row | Sequence | switch fluorescence ratio
79 | TCTCAGGAGG | 0.991
80 | TCTCATAAGG | 0.977
81 | TCTCCATCCG | 1.22
82 | TCTCCCCAGG | 2.34
83 | TCTCCTAGTG | 1.14
84 | TCTCCTATAT | 1.69
85 | TCTCCTCTTC | 1.14
86 | TCTCCTTTAT | 1.29
87 | TCTCGAATAT | 1
88 | TCTCGCGCCG | 0.992
89 | TCTCGGATCT | 0.991
90 | TCTCGTGCTG | 0.988
91 | TCTCGTGTTA | 1.04
92 | TCTCGTTAGA | 1
93 | TCTCGTTTGA | 0.985
94 | TCTCTCGATG | 0.983
95 | TCTCTCTAGT | 0.991
96 | TCTCTCTCGC | 1.28
97 | TCTCTGTCG | 1.02
98 | TCTCTTAGAT | 0.981
99 | TCTCTTCGGG | 1.03
100 | TCTGAACGGA | 1.17
101 | TCTGAATGCC | 1.04

— the supplement of paper PMC10126150
